Experimental data reported in the supplement of paper PMC12632987.
Over roughly 2,300 sequences, “median log2 fold change of GCK-ALFA target abundance (FLAG IP / Myc IP barcode read proportion)” has its median near 0.095; the lowest 2% begin near -0.47. Some of the results follow.

B1: LC3A_141_363 (protein)
chain: EVKVKTITLTATTEEEAEQAAEEIGKNIEAFMKETGAEKVTVTTTITAKNAATGETTTTTDTDIVTKENLDLYIEGLRIDLLSAFDAGADEITVTVTIET
B2: LC3A_free_8_2464 (protein)
chain: ASQKLVDTIVAKLDELEKALVKKAKEEGKSRLDILELELEVGSAIAELISNVDASPEEILKTLKEDLKDIIKVAKEIGEEVAKLAKEKSKEILAEAEALI
B3: LC3A_free_8_2485 (protein)
chain: SLEETQKKMLEIIDKTEEEVEKKMKELGADELDINDILLLLGEVEIAVHELTPENIEETKKEITDAFDEAIKEAEEIDPEIAKIVTEAKEKVLKLLDEAK
B4: LC3A_3_1436 (protein)
chain: MEELLEEAKKVLEEIGASEEAKEAVLRLVKLALAAGEEELVEELIKVLKKAKNVPSEDILEAAERALRRVEEEGVPVEEALKELIEELRVLALEQEIEEL
B5: LC3A_free_46_2371 (protein)
chain: MKITIYLYKEGFTEEEAKKLAEELEKKIKEIAKKHGVKVKVKSEVVKNKDGSYLVKITVEIDAPTEELAQKVEQEIIDTVEEIAKKTGAAAIISVEKIEP
B6: LC3A_147_506 (protein)
chain: YLLTIEIDIIVKNAEEEVKEKVEEIKKKLEEKGFKVEVKIETEKLDEETTYIKITIKVEAKTKEEAEEARDLILDEWDKFEEKNKDKILGSLISYEIEEK
B7: LC3A_23_626 (protein)
chain: KVKLTVLIDTIGSEEEIEENIKKIKEKVKEIEKKYKDKVLEVKIEVEKEKDEDGKTIGTIKITIVFDDDEEAAKEAADELISFADENIPNGVVSYEIEKL
B8: LC3A_128_233 (protein)
chain: SEKREEIIKLLEEARKLAEELPQSPEAKEIKEKLIKELDAAIKLLKEGGDLEEVQKELDKADELAEELREKTDVDRLKVLELELLIGEAIALVQEMINDK
B9: LC3A_free_8_2489 (protein)
chain: KSQELANLASDLLDELEEEVEKKAKELGASELDILDLSLLIGSTIAEAYSLSDESPEKIIEAVREGLEELIERAKEISEELAKKVKELSEKILKELEEKA
B10: LC3A_132_300 (protein)
chain: NKELAEKLKEEIKKLVEEAKENIDNEEKVRELFKKIEKLLEEAEKKLTPEEQAEVFEYAAELLDELSKVFLEKGKEELAEEADGLAIEAESLSLRAKEKI
B11: LC3A_free_39_2185 (protein)
chain: SAEEREKYVEEALALAAEEGEETEELAKRLLEVLGDDVEAVKKFLELLKEMKEEGVDLKEALEEALALAEQLKAEGKSQEEIAKAVLEQLQDHINLIPID
B12: LC3A_free_46_2355 (protein)
chain: VKAEILIDLLHEDEEVLKKAVEEIKKAAKEIAKKYGLKVEIKEEISKLPDGSYYAEIEITLTGETKEKLEKAVTELINKIDEIAKKYNVAAIISYEIIEE
B13: LC3A_3_1591 (protein)
chain: MEELVEEALARLEAAGLSPEVLAAARELLEALAEKGYEEAIKTTTELLLENRDLPDEVLVDTLNDILHIVETEDLDEEEIIERIKEEFRVARLEGEIEEL
B14: LC3A_3_1816 (protein)
chain: LEERVEAALERLRAAGASPETLEAFRAAAEALRERGYEEALKTLIELTEELLDLPSELLLAFFQDVLALIETSDLNEEEIKEKIKEIASTHRNEAEIEEL
B15: LC3A_3_1437 (protein)
chain: MEELLREAEEVLEEIGASEEAREAVLELVRLALEAGEEEGVKRLIEVLKEAKNVPSEEVLEAAERALRRVREEGVPIGEALEELIEELRVLALEQEIEEL
B16: LC3A_28_1325 (protein)
chain: SHIEEELERAEKEAEEALAKGEPALLEITVKPTTTVEEAEELMERLEEIIAKYAPKQKISVIINVESGVKQEVIDVIAEKAEEIEEKFPNVTVIIALDED
B17: LC3A_28_1049 (protein)
chain: SPIEEELKRALEEAKEAVARGEEALIRLTIGKDATEEDVEKVLETMEEIAELTKSLPRVDIVVDVDSENKEEVTKKIAEKGEELEKKYPNVTVYIALSEE
B18: LC3A_3_1902 (protein)
chain: MEELKEKLLEALKEAGASEETIEDAKEALDLIFSRGLEEVAKLFVEAVLELLKISVEKAEEFIREFLEAVKSFKGSNEEFEKFLKEEIKTLYNEQLIEEL
B19: LC3A_3_1434 (protein)
chain: SAALLARAEAVLAAAGFSPEARAAVLELVRRALAAGEEAGVERLIEVLAEAKDVPSEEVLAAARAALRRYEEEGVPMAEVVADFIAELRVLRLEEEIEEL
B20: LC3A_62_2054 (protein)
chain: MEKGTIYVDMLFKTKETMEEAKERIKEIVEEMKKEGVNVELEIEEEEEDGEYFLHVTITTDSREATLEAEDRVLDLIDELIAKHPEDVLAAIVSREIEEL
B21: LC3A_free_8_2528 (protein)
chain: SVQELVDTLTAQLDELEKALVEKAKELGLSELDINELELEVGEAIIEIIELEDKSKEEILKKLKEELKRIIELAKEISEEVAKLAEEKSKEIIEEAEKLI
B22: LC3A_61_2040 (protein)
chain: EEVVLPTEELTERLRRVLERLRELAEKGSEELKKLLEEAEEELRKLAEEELAVEEGLELAEKYLEEIEKSESEEERLKLAEELLDELKDLLLLAPIDDDE
B23: LC3A_28_1324 (protein)
chain: SHIEEELAKARAEAEEQAAKGEEITLTVEISGETTLEEAEEMMEALEEIAEKYAPKRKVNIIIDLDGGVAQEVIDLIAEKAEEIEKKYPNVTVIIALDEE
B24: LC3A_3_1787 (protein)
chain: MEERIEALLERLREAGHSEETIEAARRVLELLKEKGYEEALETFIEGLEELIDLPDEILLDMLLEALRLLEENDWSEEEVKERIKELMRLARSEGEIIEL
B25: LC3A_free_46_2397 (protein)
chain: YVAKIDVDVLGLTEEQAEEFIKRVKELAEKISKEYNVEIEIEVEVEKNEDGTYYVRIRITIKGENKETVQKATTDLLDGIEEIAEELGASVIFSVEFEEE
B26: LC3A_28_775 (protein)
chain: MDVAANVAAAIAEAKEAKAKGEEAVITITVPAGATQADIDTVIAGLKEIAEITKDMKSISVVIDVDGGVAQEHLDKLMKAAEEIEKKYPNVTVIIALDEE
B27: LC3A_28_817 (protein)
chain: SAAEKTIEKVKEQAEKAKNSKEPVLIEVDVPGTITVEEAKRLMEEIEKLAKELSKKHKVYIVINFTEPVSQEVLDLISKRAEEIEEKYPNVSVIIALPEE
B28: LC3A_28_914 (protein)
chain: SALDESTERALAEIEEAAARGEPAVVTLEVTEEDPARAAAETRRALARLAEAAKKHPGVTIIVDAPANVADEVTAVADEVQAELLKANPSNHIIVALEEP
B29: LC3A_28_1181 (protein)
chain: SELEESIKKALEEAEAAAKAGEATVITIKVPGDVTEEETEKVIKALEEIAELLKDIKGSAIVIEVDSGVSEEHLNKIIEKAEEIEKKYPNVTVIIALDEE

target: MAP1LC3A, Q9H492; test: median log2 fold change of GCK-ALFA target abundance (FLAG IP / Myc IP barcode read proportion) (log2 ratio); each designed protein is fused to an ALFA-tag nanobody in HEK293 cells to bring the named protein to FLAG-tagged glucokinase (GCK); Myc marks an untargeted standard; higher = target protein stabilised (more abundant); conditions: target protein: 3xFLAG-MCP-GCK-ALFA reporter; HEK293 landing pad (RPLP)
Summary of the method: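 The readout is target abundance, the per-binder median log2 ratio of FLAG to Myc barcode read proportions. It came from HEK293 landing-pad cells carrying a recombined ALFA-nanobody-fused binder library, induced with 2 μg mL^−1 doxycycline and transfected with a plasmid for a FLAG-tagged target and a Myc-tagged standard. After 48 h, lysates were immunoprecipitated with anti-FLAG and anti-Myc, and circular RNA barcodes were reverse transcribed, amplified and sequenced. Each barcode needed a proportion of at least 10^−7 in both replicates and each binder at least 3 barcodes per replicate, a pseudocount of 10^−6 was added, and the replicates were pooled.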

| Binder | median log2 fold change |
| --- | --- |
| B1 | 0.172 |
| B2 | -0.304 |
| B3 | -0.0593 |
| B4 | 0.315 |
| B5 | 0.173 |
| B6 | -0.346 |
| B7 | 0.187 |
| B8 | 0.149 |
| B9 | 0.0352 |
| B10 | 0.318 |
| B11 | 0.241 |
| B12 | -0.335 |
| B13 | 0.202 |
| B14 | 0.291 |
| B15 | 0.178 |
| B16 | 0.0261 |
| B17 | 0.00401 |
| B18 | 0.236 |
| B19 | 0.143 |
| B20 | -0.359 |
| B21 | -0.0825 |
| B22 | 0.055 |
| B23 | 0.05 |
| B24 | -0.221 |
| B25 | -0.0331 |
| B26 | -0.154 |
| B27 | -0.352 |
| B28 | -0.0691 |
| B29 | -0.445 |
